Results from PubChem BioAssay AID588342 (National Center for Advancing Translational Sciences (NCATS), 2011).
Out of some 360,000 compounds screened, about 25,000 (6.9%) were called active. The shares of active, inactive and inconclusive entries below differ from those in the screen. Calls follow the shape of the dose curve; as a rule, active = well fitted inhibition curve with a large enough effect; inconclusive = small, poorly fitted or top-dose-only effect; inactive = flat fitted curve, though single readings scatter. Potencies of inconclusive entries are doubtful fits and often do not repeat.

What follows are compounds tested against Luciferin 4-monooxygenase (Photinus pyralis) (UniProt P08659) (assay: qHTS profiling assay for firefly luciferase inhibitor/activator using purifed enzyme and Km concentrations of substrates (counterscreen for miR-21 project)). Settings: purified FLuc, luminescence inhibition; activity change, negative = inhibition: at 57.5 µM (top of the series).
Procedure, shortened: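 Purified P. pyralis luciferase, 10 nM final, with Km-level 10 uM D-luciferin and 10 uM ATP in 50 mM Tris acetate pH 7.5, 10 mM Mg acetate, 0.01% Tween-20, 0.05% BSA; 6-point qHTS titration about 60 µM downward; luminescence read.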
Also: nearly all actives have a fitted effect of over 55% in size.
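For activity change, negative = inhibition in this document: plate controls were vehicle for no effect and reference inhibitor for full effect.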
Potency is read from the fitted curve at half-maximal effect; tags tell the direction and shape of the fitted curve.

Sequence of UniProt P08659 (P08659 whole entry, looked up): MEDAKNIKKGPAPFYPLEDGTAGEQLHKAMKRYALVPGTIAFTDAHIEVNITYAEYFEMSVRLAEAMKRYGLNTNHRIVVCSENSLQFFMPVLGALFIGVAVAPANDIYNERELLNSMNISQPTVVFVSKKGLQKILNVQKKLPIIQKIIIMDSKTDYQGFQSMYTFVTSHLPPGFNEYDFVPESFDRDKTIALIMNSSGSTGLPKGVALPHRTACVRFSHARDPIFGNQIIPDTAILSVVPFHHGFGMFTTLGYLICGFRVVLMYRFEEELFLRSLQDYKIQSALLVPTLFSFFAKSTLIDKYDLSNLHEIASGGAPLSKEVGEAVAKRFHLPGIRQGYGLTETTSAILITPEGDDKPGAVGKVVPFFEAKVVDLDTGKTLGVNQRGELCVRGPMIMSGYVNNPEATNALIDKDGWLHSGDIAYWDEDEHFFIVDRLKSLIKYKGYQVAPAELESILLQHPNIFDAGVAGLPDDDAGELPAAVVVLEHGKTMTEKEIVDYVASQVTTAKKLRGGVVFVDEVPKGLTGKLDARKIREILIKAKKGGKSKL

Q: `CC(=O)Oc1ccc(C2=NN(c3ccccc3)C(c3ccccc3)C2)cc1` (centres undefined) was tested. Which Potency did it give?
A: Its Potency is inconclusive: 15.1 µM [inhibitor, partial curve, poor fit].

Q: Which “activity change, negative = inhibition” value does the source give for `COc1ccc(N2CCN(C(CNS(=O)(=O)c3ccc4c(c3)OCCO4)c3ccco3)CC2)cc1` (centres undefined) here?
A: The value was inactive: 1.3%.

Q: `COC(=O)c1scc(-c2ccc(C)cc2)c1S(=O)(=O)Nc1cccc(C(F)(F)F)c1` was tested. Which Potency did it give?
A: The Potency was inconclusive: 21.3 µM [inhibitor, partial curve, poor fit].

Q: For `Cc1cccc(-c2nsc(SCC(=O)NCC3CCCO3)n2)c1` (centres undefined), which Potency is on record?
A: The Potency was inconclusive: 15.1 µM [inhibitor, partial curve, poor fit].

Q: With `COC(=O)C1=C(C)NC2=C(C(=O)c3ccccc32)C1c1cccc(OC)c1` (centres undefined) as the compound, how does the “activity change, negative = inhibition” value read?
A: Its value is inactive: -3%.

Q: Which Potency does the source give for `COc1ccc(CC(=O)Nc2cccc(-c3nnc(-c4ccccc4)o3)c2)cc1OC` here?
A: The Potency was inconclusive: 9.53 µM [inhibitor, partial curve].

Q: How did the Potency turn out when `CC(=O)c1ccc(N2CCN(C(=O)Nc3cccc(F)c3)CC2)cc1` was run?
A: The Potency was “inactive”.

Q: How did the Potency turn out when `CCN(CC)c1ccc(C(=O)NCc2ccc3c(c2)CCN3C(C)=O)cc1` was run?
A: The Potency was inconclusive: 37.9 µM [inhibitor, partial curve, poor fit].

Q: Which Potency does the source give for `CCn1c(C(=O)O)c(CC(=O)NC2CCCCCC2)c2ccccc21` here?
A: The Potency was inconclusive: 9.53 µM [inhibitor, partial curve].

Q: With `CC(/C=N/NC(=O)c1cc(-c2cccn2C)n[nH]1)=C\c1ccccc1` as the compound, how does the Potency read?
A: Its Potency is inconclusive: 9.53 µM [inhibitor, partial curve].

Q: How did the Potency turn out when `CC(C)c1cc(C(=O)Nc2cc(Br)ccc2O)no1` was run?
A: Its Potency is inconclusive: 6.01 µM [inhibitor, full curve].

Q: Which Potency does the source give for `Cc1cc(C(=O)OCC(=O)c2ccc(Br)s2)c(C)o1` here?
A: The Potency was inconclusive: 21.3 µM [inhibitor, single point].

Q: Which Potency does the source give for `COc1cccc(NC(=O)C(=O)NCC2CCCN2S(=O)(=O)c2ccccc2)c1` (centres undefined) here?
A: The Potency was active: 15.1 µM.

Q: How did the Potency turn out when `Cn1c(=O)n(CCc2ccccc2)c(=O)c2c1nc1n2CCN1c1ccc(Cl)cc1` was run?
A: The Potency was inconclusive: 37.9 µM [inhibitor, partial curve, poor fit].

Q: `Cc1cccc(N2CCN(c3ccc(C(=O)O)cc3NC(=O)c3ccccc3F)CC2C)c1` (centres undefined) was tested. Which Potency did it give?
A: The Potency was inconclusive: 12 µM [inhibitor, partial curve, poor fit].

Q: How did the Potency turn out when `Cc1ccc2nc(NC(=O)c3cccs3)sc2c1` was run?
A: The Potency was active: 0.478 µM.

Q: `CCc1ccc(NC(=S)Nc2ccc3cn[nH]c3c2)cc1` was tested. Which Potency did it give?
A: The Potency was inconclusive: 26.9 µM [inhibitor, partial curve, poor fit].

Q: `O=C(Nc1cccc(S(=O)(=O)c2cccc(NC(=O)c3ccco3)c2)c1)c1ccco1` was tested. Which “activity change, negative = inhibition” value did it give?
A: The value was inactive: 0.324%.

Q: How did the Potency turn out when `O=C(NNC(=O)c1cc(Cl)ccc1O)c1cccc(S(=O)(=O)N2CCOCC2)c1` was run?
A: The Potency was inconclusive: 37.9 µM [inhibitor, single point].

Q: Which “activity change, negative = inhibition” value does the source give for `Cc1cc(O)c(S(=O)(=O)c2ccccc2)c(C)c1NS(=O)(=O)c1ccccc1` here?
A: Its value is inactive: -2.14%.

Q: With `COCCCNC(=S)N/N=C/c1ccc(O)cc1O` as the compound, how does the Potency read?
A: Its Potency is inconclusive: 23.9 µM [inhibitor, single point].

Q: For `O=C(O)CSc1nc2c(c(C(F)(F)F)n1)CCc1ccccc1-2`, which Potency is on record?
A: The Potency was inconclusive: 37.9 µM [inhibitor, single point].

Q: With `COc1ccc(NC(=S)NC(=O)c2ccccc2Cl)cc1` as the compound, how does the Potency read?
A: The Potency was inconclusive: 30.1 µM [inhibitor, partial curve].

Q: How did the Potency turn out when `CCOC(=O)c1cc2ccc(OC(=O)c3ccco3)cc2oc1=O` was run?
A: Its Potency is inconclusive: 16.9 µM [inhibitor, partial curve].

Q: How did the “activity change, negative = inhibition” value turn out when `O=[N+]([O-])c1ccc2[nH]c(O)c(N=NC3CCS(=O)(=O)C3)c2c1` (centres undefined) was run?
A: Its value is inactive: -0.0029%.

Q: `C[n+]1cc(-c2ccccc2)oc1-c1ccccc1` was tested. Which Potency did it give?
A: Its Potency is inconclusive: 37.9 µM [inhibitor, single point].

Q: For `Cc1ccc(NC(=O)CSc2[nH]c(=O)ncc2C)cc1`, which Potency is on record?
A: Its Potency is inconclusive: 26.9 µM [inhibitor, partial curve, poor fit].

Q: How did the “activity change, negative = inhibition” value turn out when `COc1cccc(Cn2cc(S(=O)(=O)c3ccc(C)cc3)c(=O)c3cc4c(cc32)OCO4)c1` was run?
A: Its value is inactive: -13%.

Q: Which Potency does the source give for `c1ccc2c(c1)CCc1c(-c3ccncc3)n[nH]c1-2` here?
A: The Potency was inconclusive: 21.3 µM [inhibitor, partial curve].

Q: Which Potency does the source give for `CCN1C(=O)[C@H]2[C@@H](c3ccc(-c4ccccc4)cc3)N3CCC[C@@]3(C(=O)OC)[C@H]2C1=O` here?
A: The Potency was inconclusive: 37.9 µM [inhibitor, partial curve, poor fit].

Q: `Cc1ccc(NC(=O)Cc2ccc(NC(=O)N3CCCCc4ccccc43)cc2)cc1` was tested. Which Potency did it give?
A: Its Potency is inconclusive: 13.5 µM [inhibitor, partial curve].

Q: With `Clc1ccc(CSc2nc3ncccc3[nH]2)cc1` as the compound, how does the Potency read?
A: Its Potency is active: 6.01 µM.

Q: With `CCC(=O)N1CCc2cc(OC)c(OC)cc2C1COc1ccc(C(=O)OC)cc1` (centres undefined) as the compound, how does the Potency read?
A: The Potency was inconclusive: 21.3 µM [inhibitor, partial curve, poor fit].

Q: Which Potency does the source give for `O=C(Nc1nnc(SCc2ccc(F)cc2)s1)c1ccccn1` here?
A: Its Potency is inconclusive: 37.9 µM [inhibitor, single point].

Q: For `Cn1ncc(Cl)c1C(=O)N1CCN(c2ncccn2)CC1`, which “activity change, negative = inhibition” value is on record?
A: The value was inactive: -1.28%.

Q: With `CSCCC(NC(=O)c1cccc(C)c1)C(=O)OCC(=O)NC(=O)c1cccn1C` (centres undefined) as the compound, how does the Potency read?
A: The Potency was inconclusive: 26.9 µM [inhibitor, partial curve, poor fit].

Q: For `C#CCOc1c(Br)cc(/C=C2/C(=O)ON=C2C)cc1OC`, which Potency is on record?
A: The Potency was inconclusive: 23.9 µM [inhibitor, partial curve, poor fit].

Q: With `COc1ccc(OC)c(CNC(=O)C2COc3ccccc3C2)c1` (centres undefined) as the compound, how does the “activity change, negative = inhibition” value read?
A: Its value is inactive: -0.387%.

Q: Which Potency does the source give for `COc1cccc(-c2nc(-c3ccc(NC(=O)Cc4ccccc4OC)cc3)no2)c1` here?
A: Its Potency is inconclusive: 13.5 µM [inhibitor, partial curve, poor fit].

Q: For `O=C(/C=C/c1cccc([N+](=O)[O-])c1)Nc1ccc(Cl)cn1`, which Potency is on record?
A: Its Potency is inconclusive: 0.006 µM [inhibitor, partial curve, poor fit].

Q: `Cc1ccc(-c2csc(Nc3ccccn3)n2)cc1` was tested. Which Potency did it give?
A: Its Potency is active: 0.601 µM.

Q: Which “activity change, negative = inhibition” value does the source give for `COC(=O)CCC(=O)NNC(=O)C1CC1(c1ccccc1)c1ccccc1` (centres undefined) here?
A: The value was inactive: 3.38%.

Q: Which Potency does the source give for `O=C(NCCc1ccccc1)/C(=N\O)c1ccccc1` here?
A: The Potency was active: 15.1 µM.

Q: With `Cc1cccc(-c2nc3nc(C)cc(N4CCN(c5ccccc5)CC4)n3n2)c1` as the compound, how does the “activity change, negative = inhibition” value read?
A: Its value is inactive: -1.19%.

Q: With `COC(=O)c1ccccc1NC(=O)COc1ccccc1` as the compound, how does the Potency read?
A: Its Potency is inconclusive: 19 µM [inhibitor, single point].

Q: With `Cc1occc1-c1nnc(-c2cc([N+](=O)[O-])cc([N+](=O)[O-])c2)o1` as the compound, how does the “activity change, negative = inhibition” value read?
A: The value was inactive: -0.828%.

Q: With `c1cncc(-c2nc(NCC3CCCO3)c3ccccc3n2)c1` (centres undefined) as the compound, how does the “activity change, negative = inhibition” value read?
A: Its value is inactive: -0.459%.

Q: Which Potency does the source give for `CC(C)(C)C1CCc2c(sc(NC(=O)c3ccncc3)c2C(=O)Nc2ccccc2Cl)C1` (centres undefined) here?
A: The Potency was inconclusive: 2.13 µM [inhibitor, partial curve, poor fit].

Q: How did the Potency turn out when `COc1ccc(NS(=O)(=O)c2ccc(NS(=O)(=O)c3ccc4c(c3)OCCO4)cc2)cc1` was run?
A: The Potency was inconclusive: 13.5 µM [inhibitor, partial curve, poor fit].

Q: With `C/C(N)=C(/C#N)C(=O)CSc1ccccc1F` as the compound, how does the Potency read?
A: Its Potency is inconclusive: 37.9 µM [inhibitor, single point].

Q: With `COc1ccc(-c2coc3c(C)c4oc(=O)c(CCC(=O)O)c(C)c4cc23)cc1` as the compound, how does the Potency read?
A: The Potency was inconclusive: 10.7 µM [inhibitor, partial curve].

Q: How did the Potency turn out when `Cc1ccc(/C=N/Nc2nc3ccccc3s2)o1` was run?
A: Its Potency is active: 0.849 µM.

Q: How did the Potency turn out when `COc1ccc(Br)cc1CNC(=O)c1ccc2c(c1)nc1n2CCCCC1` was run?
A: The Potency was inconclusive: 21.3 µM [inhibitor, partial curve, poor fit].

Q: How did the Potency turn out when `Cc1nc2ccccc2n1C(=O)c1cc(-c2ccc(Br)cc2)nc2ccccc12` was run?
A: Its Potency is inconclusive: 16.9 µM [inhibitor, partial curve, poor fit].

Q: Which Potency does the source give for `CCOC(=O)CNc1c(-c2ccccc2)nc2ccc(Cl)cn12` here?
A: Its Potency is active: 9.53 µM.

Q: `Cc1cc(C)c2nc(NC(=O)[C@@H](NC(=O)c3cccc(S(=O)(=O)N4CCOCC4)c3)C(C)C)sc2c1` was tested. Which Potency did it give?
A: Its Potency is inconclusive: 21.3 µM [inhibitor, partial curve, poor fit].

Q: With `O=C(Nc1ccc(Cl)c(S(=O)(=O)N2CCCCC2)c1)C1=COCCO1` as the compound, how does the “activity change, negative = inhibition” value read?
A: Its value is inactive: -6.64%.

Q: `Cc1c(C(=O)N2CCC(C(=O)Nc3ccc(F)cc3)CC2)sc2nc[nH]c(=O)c12` was tested. Which “activity change, negative = inhibition” value did it give?
A: The value was inactive: -2.4%.

Q: For `Fc1ccc(/C=N/Nc2nc(-c3cccnc3)nc3ccccc23)cc1`, which Potency is on record?
A: The Potency was active: 2.13 µM.

Q: How did the Potency turn out when `CC(C)(C)C(=O)N1CCN(c2nc3c(F)cccc3s2)CC1` was run?
A: Its Potency is inconclusive: 30.1 µM [inhibitor, partial curve, poor fit].

Q: With `Cc1ccc(-c2nn(-c3ccccc3)cc2CC(=S)N2CCOCC2)cc1` as the compound, how does the “activity change, negative = inhibition” value read?
A: Its value is inactive: 1.75%.

Q: Which Potency does the source give for `Cc1ccc(NC(=O)CNc2ccc(OC(C)C)cc2)cc1` here?
A: The Potency was inconclusive: 30.1 µM [inhibitor, partial curve, poor fit].

Q: With `Cc1nnc(SCC(=O)Nc2ccccc2)c2ccccc12` as the compound, how does the Potency read?
A: Its Potency is active: 16.9 µM.

Q: How did the Potency turn out when `CN=C1S/C(=C/c2cn(CC(=O)OC)c3ccccc23)C(=O)N1C` was run?
A: The Potency was active: 19 µM.

Q: How did the Potency turn out when `COc1ccc(-c2cc(C(=O)Oc3ccc(C)c(C)c3)c3ccccc3n2)cc1` was run?
A: The Potency was inconclusive: 12 µM [inhibitor, partial curve, poor fit].

Q: How did the “activity change, negative = inhibition” value turn out when `O=C(Cn1c(=O)n(Cc2ccc3c(c2)OCO3)c(=O)c2ccc(C(=O)NC3CCCCC3)cc21)Nc1ccccc1F` was run?
A: Its value is inactive: -0.269%.

Q: With `CCOc1ccc(CCNC(=O)c2ccc(CS(=O)Cc3ccccc3Cl)o2)cc1` (centres undefined) as the compound, how does the Potency read?
A: Its Potency is active: 23.9 µM.

Q: With `COc1ccc(OCc2cc(C(=O)N3CCCC(OC)C3)no2)c2ccccc12` (centres undefined) as the compound, how does the Potency read?
A: The Potency was active: 26.9 µM.

Q: Which Potency does the source give for `Cc1ccc(C(=O)NC2(C(F)(F)F)C(=O)Nc3c2c(=O)[nH]c(=O)n3CCc2ccccc2)cc1` (centres undefined) here?
A: The Potency was inconclusive: 13.5 µM [inhibitor, partial curve, poor fit].
